# PubChem BioAssay AID686979 (National Center for Advancing Translational Sciences (NCATS), 2013)
# Where “and” joins values, the source holds several entries; their conditions need not be identical. Equal entries are not always repeated. The whole screen tested about 420,000 compounds, of which about 50,000 (12%) were called active. This list was built around the results that the source calls inconclusive (neither active nor inactive); the mix of calls is not that of the screen. Calls come from the whole dose curve; as a rule, active = well fitted inhibition curve with a large enough effect; inconclusive = small, poorly fitted or top-dose-only effect; inactive = flat fitted curve, though single readings scatter. A potency beside an inconclusive call is a rough fit, not a confirmed value.
# Assay: qHTS for Inhibitors of human tyrosyl-DNA phosphodiesterase 1 (TDP1): qHTS in cells in presence of CPT; note: nearly all actives have a fitted effect of over 55% in size
# Conditions: chicken DT40 Tdp1-/-;hTDP1 cells + 20 nM CPT, ATP luminescence, 48 h; activity change, negative = growth inhibition: at 46.2 µM (top of the series) unless noted
# Method in brief: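 Cell growth measured by CellTiter-Glo luminescence after a minimum 48 h, 37 C compound exposure with 20 nM CPT in Tdp1-knockout DT40 cells stably expressing hTDP1, seeded 400/well; qHTS titration format.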
# % is set by controls: 0 for no effect and ±100 for the full control effect; potency is the fitted concentration of half-maximal effect; tags give direction and shape of the fitted curve.
SMILES,Potency,"activity change, negative = growth inhibition"
Cc1ccc(NC(=O)Cn2cnc3c(oc4nc5c(cc43)COC(C)(C)C5)c2=O)cc1,"inconclusive: 20.6 µM [inhibitor, partial curve]",–
CC1Sc2ccc(S(=O)(=O)CCC(=O)N3CCc4ccccc43)cc2NC1=O (configuration not stated),–,inactive: -13.9%
O=C(Cn1c(=O)n(-c2ccc(Cl)cc2)c(=O)c2c3c(sc21)CCC3)c1ccc(F)cc1,active: 8.2 µM,–
CCN1CCSc2ccc(C(=O)NCc3cccc(F)c3)cc21,"inactive and inconclusive: 29.1 µM [inhibitor, single point]",–
CCc1nc2oc3ccccc3c(=O)c2c(=O)n1Cc1ccc(OC)cc1,"inconclusive: 20.6 µM [inhibitor, single point]",–
CCCCc1nn2c(=O)cc(COC(=O)c3ccc(NC(=O)c4cccs4)cc3)nc2s1,–,inactive: -22.2%
CCCn1cc(CN2CCN(Cc3ccc(C)o3)C(CCO)C2)c(C)n1 (configuration not stated),–,inactive: 16.7%
Fc1ccc(Nc2nc3nonc3nc2Nc2cccc(C(F)(F)F)c2)cc1,active: 0.326 µM,–
CCC(=O)N1N=C(c2cccs2)CC1c1ccc(C)cc1 (configuration not stated),"inconclusive: 23.1 µM [inhibitor, single point]",–
CC(C)(C)C1CCc2c(sc(NC(=O)Cn3nnc(-c4cccc(C(F)(F)F)c4)n3)c2C#N)C1 (configuration not stated),–,inactive: -2.33%
O=c1c2oc3nc4c(cc3c2ncn1CCCc1ccccc1)CCCC4,"inconclusive: 29.1 µM [inhibitor, single point]",–
COc1cccc(C(O)c2nc(-c3cccc(F)c3)cs2)c1 (configuration not stated),"inconclusive: 29.1 µM [inhibitor, single point]",–
COc1ccc(CNc2ncnc3c2[nH]c2ccccc23)cc1,active: 10.3 µM,–
CC(C)(C)OC(=O)[C@H](Cc1ccccc1)NC(=O)c1nc[nH]c1C(=O)N[C@@H](CCCCN)C(=O)OC(C)(C)C,"inconclusive: 29.1 µM [inhibitor, single point]",–
O=C1CC(c2ccccc2)Cc2nc(NC3CC3)ncc21 (configuration not stated),"inconclusive: 29.1 µM [inhibitor, single point]",–
CC(C)NS(=O)(=O)c1ccc2c3c(cccc13)CC2,"inconclusive: 16.4 µM [inhibitor, single point]",–
CCOC1=C2CN(S(=O)(=O)c3ccc(C)cc3)C(c3cccc(Cl)c3)CC2N(S(=O)(=O)c2ccc(Cl)cc2)C(c2ccccc2)C1 (configuration not stated),"inconclusive: 18.4 µM [inhibitor, single point]",–
COc1ccc(C2(C)NC(=O)N(CC(=O)c3cc(C)n(C4CC4)c3C)C2=O)cc1 (configuration not stated),"inconclusive: 29.1 µM [inhibitor, single point]",–
Cc1csc2nc(COc3ccc(NC(=O)COc4ccccc4F)cc3)cc(=O)n12,"inconclusive: 18.4 µM [inhibitor, single point]",–
COc1cccc(-c2ccnc(-n3ncc(C(=O)NCC4(N5CCCCC5)CCCC4)c3C)n2)c1,–,inactive: 10.2% [at 9.04 µM]
O=C(NCc1ccc(F)cc1)Nc1nnc([C@@H]2C[C@H](O)[C@@H](CO)O2)s1,–,inactive: 1.24%
COc1ccccc1N1CCN(C(=O)CSc2nc3ccccc3nc2Cc2ccc(F)cc2)CC1,"inconclusive: 29.1 µM [inhibitor, single point]",–
O=C(c1cc([N+](=O)[O-])ccc1N1CCCCC1)N1CCCCC1,"inconclusive: 20.6 µM [inhibitor, single point]",–

SMILES,Potency,"activity change, negative = growth inhibition"
COc1ccccc1Cn1c(CNS(=O)(=O)c2ccc3c(c2)CCCC3)nc2cccnc21,"inconclusive: 25.9 µM [inhibitor, single point]",–
COc1ccccc1OCCSc1ncnc2nc[nH]c12,"inconclusive: 23.1 µM [inhibitor, single point]",–
Cc1c(Nc2nc(-c3ccc(Cl)cc3)cs2)c(=O)n(-c2ccccc2)n1C,"inconclusive: 29.1 µM [inhibitor, single point]",–
Cc1cccc(Nc2nc(-c3ccccc3)c3cc(C)ccc3n2)c1,"inconclusive: 18.4 µM [inhibitor, single point]",–
COc1cc2c(cc1OC)C1(C)N(CC2)C(C(C)=O)=NN1c1ccc(Cl)cc1 (configuration not stated),"inconclusive: 29.1 µM [inhibitor, single point]",–
COc1cccc(-c2ccc(NC(=O)C3CCCN(Cc4cc(C)[nH]n4)C3)cc2)c1 (configuration not stated),"inconclusive: 20.6 µM [inhibitor, single point]",–
Cc1ccc(-n2ncc3c(N4CCC5(CC4)OCCO5)ncnc32)c(C)c1,active: 11.6 µM,–
O=C(CSc1nc(-c2ccccc2)[nH]c1-c1ccccc1)Nc1ccc2c(c1)OCO2,active: 20.6 µM,–
Cc1c(C(=O)Oc2ccc(-c3cnc4ccccc4n3)cc2)cccc1[N+](=O)[O-],"inconclusive: 29.1 µM [inhibitor, single point]",–
CCc1ccc(NC(=O)Cn2nc(C(F)(F)F)c3c2CCC3)cc1,"inconclusive: 25.9 µM [inhibitor, single point]",–
Cc1ccc(/C=[N+](\[O-])c2ccc(N(C)C)cc2)c2nsnc12,active: 7.31 µM,–
CCC(=O)N1c2ccccc2CC1C(=O)NCCN1CCN(c2cccc(C)c2C)CC1 (configuration not stated),active: 23.1 µM,–
Cc1ccc(-c2nc3ccccc3o2)cc1NC(=O)c1cccc2c(Cl)cccc12,"inconclusive: 20.6 µM [inhibitor, single point]",–
Fc1ccc(Oc2nc(-c3ccccn3)nc3ccccc23)cc1,active: 4.61 µM,–
COc1cccc(CN2CC(C(=O)NC3CCC(O)CC3)CCC2=O)c1 (configuration not stated),–,inactive: 1.26%
CC(C)CCn1c(SCC(=O)Nc2ccccc2C(F)(F)F)nc2nccnc2c1=O,"inconclusive: 29.1 µM [inhibitor, single point]",–
CC(C)CC(=O)N1CC(=O)Nc2ccc(F)cc2C1c1ccccc1 (configuration not stated),inactive,–
O=C(NCC1Cc2cccc(-c3cnccn3)c2O1)c1ccc2c(c1)OCCO2 (configuration not stated),"inconclusive: 29.1 µM [inhibitor, single point]",–
O=C1C2CC=C(Cl)CC2C(=O)N1CCCCCCN1C(=O)C2CC=C(Cl)CC2C1=O (configuration not stated),"inconclusive: 14.6 µM [inhibitor, partial curve]",–
Cc1sc2c(c1C)c(=O)n(-c1ccccc1)c(=O)n2CC(=O)c1ccc(Cl)cc1,"inconclusive: 23.1 µM [inhibitor, partial curve]",–
O=C(NCC(=O)N1CCC2(CC1)NCCc1[nH]cnc12)c1ccc(Br)cc1,–,inactive: -15.1%
CCN(CC)c1ccc(NC(=O)CN(C)Cc2cccs2)cc1,"inconclusive: 29.1 µM [inhibitor, single point]",–
COc1cc(-c2noc(C)c2C(=O)NCCc2cccs2)cc(OC)c1OC,–,inactive: -17.6%

SMILES,Potency,"activity change, negative = growth inhibition"
COc1ccc2cc3c(N)nn(C(=O)c4ccc(F)cc4)c3nc2c1,"inconclusive: 11.6 µM [inhibitor, partial curve]",–
O=C(Nc1ccc(F)cc1)C1CCN(c2nc3ccccc3n3cccc23)CC1,"inconclusive: 16.4 µM [inhibitor, single point]",–
O=C(C[C@@H]1C/C=C\CCC(=O)OC[C@H](Cc2ccccc2)NC1=O)N[C@@H](CO)Cc1ccccc1,–,inconclusive: -34.4% [inhibitor]
Cc1c(C(C)(C)O)[nH]c2ccc(C#N)cc12,"inconclusive: 29.1 µM [inhibitor, single point]",–
COc1ccc(OC)c(S(=O)(=O)N2CCC(C(=O)N3CCN(c4ccc(F)cc4)CC3)CC2)c1,"inconclusive: 25.9 µM [inhibitor, single point]",–
CCCCN(C)C(=O)C1CCN(Cc2ccc(OCc3ccccc3)cc2)CC1,"inconclusive: 25.9 µM [inhibitor, single point]",–
COc1cc(/C=N/NC(=S)NC2CC3CC2C2C=CCC32)ccc1O (configuration not stated),"inconclusive: 25.9 µM [inhibitor, single point]",–
Cc1ccc(S(=O)(=O)N(C)c2ccc(C(=O)NCC(c3ccccc3)N3CCCC3)cc2)cc1 (configuration not stated),"inconclusive: 29.1 µM [inhibitor, single point]",–
CSc1ccccc1C(=O)Nc1cc2c(cc1C(=O)O)OCCCO2,–,inactive: 1.09%
O=c1[nH]c(=O)n(Cc2ccccc2)c2nc(-c3ccc(Oc4ccc(F)cc4)c([N+](=O)[O-])c3)n(CCO)c12,active: 16.4 µM,–
Cc1c(-c2cc(C(=O)O)c3ccccc3n2)cnn1C,–,inactive: 2.16%
CCOC(=O)C1(Cc2cccc(F)c2)CCN(Cc2ccc(COC)o2)CC1,active: 23.1 µM,–
O=C(Nc1cccc(F)c1)N1CC2(CCN(C(=O)c3cc(C(F)(F)F)cc(C(F)(F)F)c3)CC2)C1,"inconclusive: 29.1 µM [inhibitor, single point]",–
O=C(CN1CCC(Cc2ccccc2)CC1)NC(=O)NCc1ccccc1,–,inactive: -3.3%
Cc1cc(C=O)c(C)c2c1[nH]c1ccccc12,"inconclusive: 18.4 µM [inhibitor, single point]",–
Cc1cc(C)c([N+](=O)[O-])cc1NC(=O)CCSc1ccccc1Cl,"inconclusive: 23.1 µM [inhibitor, single point]",–
COc1cccc(/C=N/n2c(-c3n[nH]c4c3CCC4)n[nH]c2=S)c1OC,–,inactive: -0.391%
Clc1ccc(-c2csc3ncnc(Cl)c23)cc1,"inconclusive: 29.1 µM [inhibitor, single point]",–
CCS(=O)(=O)N1CCc2cc(C(=O)Nc3cccc(C)c3C)ccc21,"inconclusive: 16.4 µM [inhibitor, partial curve]",–
CCS(=O)(=O)C1=NSC2=NC(=O)/C(=C\c3ccc(OS(=O)(=O)c4ccccc4)cc3)C(=N)N21,–,inactive: -10.9%
COc1cccc(/C=C2/CN(C)CC3=C2OC(N)=C(C#N)C3c2cccc(OC)c2)c1 (configuration not stated),active: 18.4 µM,–
